The chains are these.
B1: C1334 (protein)
chain 1: EVQLVESGAEVKKPGESLKISCKGSGYSFTSNWIGWVRQMPGKGLEWMGIIYPGDSDTRYSPSFQGQVTISADKSISTAYLQWSSLKASDTAMYYCARTYGSGSYSDFDYWGQGTLVTVSS
chain 2: QSVLTQPPSASGTPGQRVSISCSGSSSNIGSNTVNWYQQLPGTAPKLLIYNNNQRPSGVPDRFSGSKSGTSASLAISGLQSEDEADYYCAAWDDSLNGRGVFGGGTKLTVL
B2: C1338 (protein)
chain 1: EVQLVETGGGLIQPGGSLRLSCVASGVTVSSNYMNWVRQAPGKGLEWVSVIYSGGSTFYADSVKGRFTISRDNSKNTLYLQMNSLRAEDTAVYYCARADDSDAFDIWGQGTMVTVSS
chain 2: DIQMTQSPSTLSASVGDRVTITCRASQSISNWLAWYQQKPGKAPKFLIHKASSLESGVPSRFSGSGSGTEFTLTISSLQPDDFATYYCQQYNNYPRTFGQGTKVEIK
B3: C1332 (protein)
chain 1: VQLVESGGGVVQPGRSLRLSCAASGFTFSSYGMHWVRQAPGKGLEWVAVISYDGSNKYYADSVKGRFTISRDNSKNTLYMQMNSLRAEDTAVYYCAKAPRGYYDRSGYYRIQDNFDYWGQGTLVTVSS
chain 2: AIRMTQSPSSLSASVGDRVTITCRASQGISSALAWYQQKPGKAPKLLISDASSLESGVPSRFSGSGSGTDFTLTISSLQPEDFATYYCQQFNGYPLTFGGGTKVEIK
B4: C1337 (protein)
chain 1: EVQLVESGGGLVQPGRSLRLSCAASGFTFDDYAMHWVRQGPGKGLEWVSGISWNSGTIGYADSVKGRFTISRDNAENSLYLQMNSLRPEDTALYYCVKDYHSVRYCSSTSCYRALDDYYGMDVWGQGTTVTVSS
chain 2: QSVLTQPPSVSGAPGQRVTISCTGSSSNIGAGYDVHWYQQLPGTAPQLLIYANINRPSGVPDRFSGSKSGTSASLAITGLQAEDEADYYCQSYDSSLSGSRVVFGGGTKLTVL
B5: C1335 (protein)
chain 1: EVQLVQSGAEVKKPGESLKISCKGSGYSFTSCWIGWVRQMPGKGLEWMGIIWPGDSDTRYSPSFQGQVTISVDKSISTAYLQWSSLQASDTAMYYCARSETYVMPPDYWGQGTLVTVSS
chain 2: QSVLTQPPSASGTPGQRVTISCSGSSSNIGSNAVNWYRQLPGTAPKLLIYNNYQRPSGVPDRFSGSKSGTSASLAISGLQSEAEADYYCAAWDDSLNGWVFGGGTQLTVL
B6: C1336 (protein)
chain 1: QVQLVESGGGVVQPGRSLRLSCAASGFTFRSFGMHWVRQAPGKGLEWVAVIWYDGSNKYYADSVKGRFTISRDNSKNTLYLHMNSLRAEDTAVYYCARDGPANQVDEQLFTITDYYYGMDVWGQGTTVTVSS
chain 2: QSALTQPASVSGSPGQSITISCTGTSSDVGGYNYVSWYQHHPGKAPKLMIYEVSNRPSGVSNRFSGSKSGNTASLTISGLQAEDEADYYCSSYTSSSTYVFGTGTKVTVL
B7: C2016 (protein)
chain 1: EVQLLESGGGLVQPGGSLRLSCAASGFTFSSYAMSWVRQAPGKGLEWVSGISSSGGRTYHADSVKGRFTISRDNSKNTLYLQMNSLRAEDTAVYYCTLGSGSSSLGNNYWGQGTLVTVSS
chain 2: QTVVTQEPSLTVSPGGTVTLTCGSSTGAVTRGHYPYWFQQRPGQAPRTLIYDTSNKHSWTPARFSGSLLGAKAALTLSGALPEDEADYFCSLSYSGAHVVFGGGTKLTVL
B8: C1333 (protein)
chain 1: VQLVESGGGVVQPGRSLRLSCAASGFTFSSYGMHWVRQAPGKGLEWVAVISYDGSNKYYADSVKGRFTISRDNSKNTLYLQMNSLRTEDTAVYYCARGWFGEEVGYYYFGLDVWGQGTTVTVSS
chain 2: QSVLTQPPSVSGAPGQRVTISCTGSSSNIGAAYDVHWYQQLPGTAPKLLIYGNSNRPSGVPDRFSGSKSGTSASLAITGLQAEDEADYYCQSYDSSLSGWVFGGGTKLTVL

Recombinant human monoclonal antibodies (heavy:light variable regions). ELISA EC50 on the named antigen, from 10 µg/ml down; IC50 / IC90 against spike pseudovirus on 293T-ACE2 cells, 48 h; lower = stronger. Calls: IC50 above 1,000 ng/ml = non-neutralizing; EC50 above 2,000 ng/ml = non-binder. The source prints 1000 for neutralization that was not reached; it is given as >1000 ng/ml. A few antibodies were first reported in earlier work of the same group. Some results are limits rather than exact numbers.

In the first assay the target is SARS-CoV-2 Wuhan-Hu-1 spike pseudovirus. Nature of the assay: pseudovirus neutralization IC50; higher = weaker neutralization. Here is the method: (§1)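 Single-round luciferase reporter pseudovirus mixed with antibody dilutions and put on 293T-ACE2 cells for 48 h; signal relative to no-antibody wells, four-parameter fit.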
On to B1, for which the “pseudovirus neutralization IC50” value worked out at 0.214 µg/mL.
Take B2: the “pseudovirus neutralization IC50” value is above 1 µg/mL.
Same read-out and setting: the value for B3 was 0.00868 µg/mL; that for B4 was 0.0443 µg/mL; that for B5 was 0.0424 µg/mL.
On the same count and under the same terms, the value for B6 was above 1 µg/mL; that for B7 was above 1 µg/mL.
The same measure, in the same setting: the value for B8 was 0.155 µg/mL.

For a further assay the target is unchanged. Kind of assay: pseudovirus neutralization IC90; higher = weaker neutralization. As for the experimental part: as §1
Consider B1, for which the “pseudovirus neutralization IC90” value was above 1 µg/mL.
B2: the “pseudovirus neutralization IC90” value was above 1 µg/mL.
On the same count and under the same terms, next, B3: 0.111 µg/mL; B4: above 1 µg/mL.
Regarding B5, the “pseudovirus neutralization IC90” value was above 1 µg/mL.
Same read-out and setting: the value for B6 was above 1 µg/mL; that for B7 was above 1 µg/mL; that for B8 was above 1 µg/mL.

The target of the next assay is SARS-CoV-2 Wuhan-Hu-1 spike receptor-binding domain. Kind of assay: ELISA binding EC50; higher = weaker binding; ELISA of recombinant human antibody on coated antigen, from 10 µg/ml in fourfold dilutions; four-parameter fit.
For the molecule B1, the “ELISA binding EC50” value came to 0.00316 µg/mL.
Same read-out and setting: the value for B2 was above 10 µg/mL; that for B3 was 0.00236 µg/mL.
On the same count and under the same terms, the value for B4 was 0.00123 µg/mL; that for B5 was 0.00261 µg/mL; that for B6 was 0.00355 µg/mL.
The same measure, in the same setting: next, B7: 0.0145 µg/mL.
As to B8, the “ELISA binding EC50” value turned out to be 0.00289 µg/mL.

(Values after the supplement of paper PMC8674133.)
